# Reference: PubChem BioAssay AID504845 (National Center for Advancing Translational Sciences (NCATS), 2011)
# In all, about 390,000 compounds went through this assay and about 150 (0.038%) were called active. The inconclusive results got no clear call from the source; some entries with a clear call stand among them for comparison. Calls follow the shape of the dose curve; as a rule, active = well fitted inhibition curve with a large enough effect; inconclusive = small, poorly fitted or top-dose-only effect; inactive = no such curve, though single readings can be large or run the other way. A potency beside an inconclusive call is a rough fit, not a confirmed value.
# Biological target: Regulator of G-protein signaling 4 (Homo sapiens) (UniProt P49798)
# Assay: Inhibitors of Regulator of G Protein Signaling (RGS) 4: qHTS; also: nearly all actives have a fitted effect of over 75% in size
# Settings: Transcreener GDP fluorescence polarization, RGS4-accelerated GTP hydrolysis; series mostly up to 114 µM
# Procedure, shortened: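 MLSMR compounds (23 nl, pin-transferred) preincubated 10 min at room temperature with a 500nM (2x) first reagent, then RGS4 at 900nM (2x) plus Transcreener GDP mix added; fluorescence polarization (620/688 nm) read before and after 90 min at 30 °C.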
# Potency is read from the fitted curve at half-maximal effect; tags tell the direction and shape of the fitted curve.
# UniProt P49798, sequence (P49798 whole entry, looked up): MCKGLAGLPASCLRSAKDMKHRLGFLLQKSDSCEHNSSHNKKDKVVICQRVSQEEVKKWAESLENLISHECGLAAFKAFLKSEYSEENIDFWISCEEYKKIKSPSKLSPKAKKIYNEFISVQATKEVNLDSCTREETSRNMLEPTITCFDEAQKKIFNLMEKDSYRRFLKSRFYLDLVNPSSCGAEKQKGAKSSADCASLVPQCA
row,Compound,Potency
1,O=c1n(Cc2ccccc2F)c2ccccc2n1Cc1ccccc1F,"inconclusive: 89.1 µM [inhibitor, single point]"
2,CCOC(=O)c1c(NC(=O)c2nc(SCC)ncc2Cl)sc(C(C)=O)c1C,inactive
3,COc1ccc(NC(=O)c2cc3c(-c4ccc(OC)c(OC)c4)nn(C)c3s2)cc1OC,"inconclusive: 35.5 µM [inhibitor, partial curve, poor fit]"
4,Cc1ccc(-c2csc(Nc3ccc(S(N)(=O)=O)cc3)n2)o1,"inconclusive: 50.1 µM [inhibitor, partial curve, poor fit]"
5,COc1ccc(/C=N/NC(N)=S)cc1OC(=O)c1ccccc1,"inconclusive: 79.4 µM [inhibitor, partial curve, poor fit]"
6,Cc1ccccc1NC(=O)Cn1c(SCC(=O)Nc2ccc(F)cc2)nc2ccccc21,"inconclusive: 50.1 µM [inhibitor, partial curve, poor fit]"
7,C#CCOCCOCCOCCNc1nc(N2CCN(C(=O)[C@H](CCCCN)n3cc(CC(C)O)nn3)CC2)nc(N2CCN(C(=O)[C@H](CCCCN)n3cc(CC(C)O)nn3)CC2)n1 (stereo partly specified),inactive
8,CCOc1cc(C2NC(=O)CCC2[N+](=O)[O-])cc(Br)c1OC (stereo unspecified),"inconclusive: 31.6 µM [inhibitor, full curve, poor fit]"
9,C[N+](C)(CCCCCC[N+](C)(C)CCCN1C(=O)c2ccccc2C1=O)CCCN1C(=O)c2ccccc2C1=O,"inconclusive: 9.47 µM [inhibitor, partial curve, poor fit]"
10,Cc1ccc(C2(C)NC(=O)N(CC(=O)Nc3nc(-c4ccccn4)cs3)C2=O)cc1 (stereo unspecified),"inconclusive: 89.1 µM [inhibitor, partial curve, poor fit]"
11,Cn1c(/C=C/c2ccc(Cl)cc2)nc2ccccc2c1=O,"inconclusive: 56.2 µM [inhibitor, partial curve, poor fit]"
12,O=C(CCNC(=O)c1ccccc1Cl)NCCCSc1ccccc1,inactive
13,CCOc1ccc(CCNC(=O)CCc2cn(Cc3ccccc3F)c3ccccc23)cc1OCC,"inconclusive: 89.1 µM [inhibitor, single point]"
14,CNc1oc(-c2ccccc2Cl)nc1C#N,inactive
15,Cc1cc(Nc2ccc(C)c(Cl)c2)n2nc(Cc3ccccc3)nc2n1,inactive
16,Cn1c(=O)[nH]c(=O)c2c1nc(N1CCNCC1)n2Cc1ccccc1Cl,inactive
17,N#CCc1ccc(Oc2ncccn2)cc1,"inconclusive: 39.8 µM [inhibitor, partial curve, poor fit]"
18,COc1ccccc1CNC(=O)[C@@H]1CCCN1C(=O)C1CCN(S(=O)(=O)c2ccc(C)cc2)CC1,"inconclusive: 100 µM [inhibitor, single point]"
19,O=C(Oc1ccc(-c2nccc(-c3ccccn3)n2)cc1)c1cccc(C(F)(F)F)c1,inactive
20,CC1(C)Cc2cccc(OCC(=O)NCCOc3ccccc3)c2O1,"inconclusive: 17.8 µM [inhibitor, full curve, poor fit]"
21,CNc1nc(C)c([N+](=O)[O-])c(Nc2ccc(OC)cc2)n1,"inconclusive: 79.4 µM [inhibitor, partial curve, poor fit]"
22,O=C(NC(=S)Nn1cnc2c(cnn2-c2ccccc2)c1=O)c1ccc(Cl)cc1,"inconclusive: 89.1 µM [inhibitor, partial curve, poor fit]"

row,Compound,Potency
1,O=C1CSc2cc(Cl)ccc2N1,"inconclusive: 44.7 µM [inhibitor, partial curve, poor fit]"
2,Cc1cc(Sc2nnc(N)s2)c2ccccc2n1,inactive
3,COC(=O)CNC(=O)C1CCN(C(=O)OCc2ccccc2)CC1,inactive
4,CC(=O)Nc1ccc(NC2(C)C(=O)c3ccccc3C2=O)cc1,"inconclusive: 100 µM [inhibitor, single point]"
5,O=c1nc(/C=C/c2cc([N+](=O)[O-])ccc2Cl)cc(C(F)(F)F)[nH]1,"inconclusive: 79.4 µM [inhibitor, single point]"
6,Cc1ccc(CCC(=O)Nc2ccc(CC(=O)O)cc2)o1,"inconclusive: 89.1 µM [inhibitor, partial curve, poor fit]"
7,CCN(CC)CCNC(=O)c1ccc(NC(C)=O)cc1,"inconclusive: 0.212 µM [inhibitor, full curve, poor fit]"
8,O=C(/C=C/c1ccccc1)NCCSCc1ccccc1,"inconclusive: 56.2 µM [inhibitor, partial curve, poor fit]"
9,Cc1nc2ccccc2c(=O)n1NC(=O)c1c(O)c2c(n(CC(C)C)c1=O)CCCC2,"inconclusive: 79.4 µM [inhibitor, partial curve, poor fit]"
10,COC(=O)c1ccc(COc2ccc(/C=C(\C#N)c3nc4ccccc4[nH]3)cc2OC)o1,"inconclusive: 50.1 µM [inhibitor, partial curve, poor fit]"
11,Cc1nc(N)sc1-c1csc(Nc2ncccn2)n1,"inconclusive: 39.8 µM [inhibitor, partial curve, poor fit]"
12,CCCCn1c(=O)[nH]c2nc3cc(N)ccc3nc2c1=O,"inconclusive: 31.6 µM [inhibitor, partial curve, poor fit]"
13,Cc1cc[n+](CC(=O)N2CCCc3ccccc32)cc1,inactive
14,O=C(NCCN1CCOCC1)c1c[nH]c2ccc(S(=O)(=O)N3CCOCC3)cc2c1=O,inactive
15,Cc1ccc(N2C(=O)C3C4C=CC(CNC(=S)N5CCN(c6ccccn6)CC5)(O4)C3C2=O)cc1 (stereo unspecified),"inconclusive: 50.1 µM [inhibitor, partial curve, poor fit]"
16,O=[N+]([O-])c1cn(-c2nc(-c3ccco3)cc(C(F)(F)F)n2)cn1,inactive
17,CCOc1ccc(N(CC(=O)Nc2ccccc2)S(C)(=O)=O)cc1,inactive
18,[O-][N+](=Cc1ccccc1)c1ccc(Cl)cc1,"inconclusive: 79.4 µM [inhibitor, partial curve, poor fit]"
19,OC(COc1ccccc1)CN1CCCCC1 (stereo unspecified),"inconclusive: 89.1 µM [inhibitor, single point]"
20,Cc1cc2cc(CNC(=S)Nc3ccc(OC(F)(F)F)cc3)ccc2[nH]1,inactive
21,O=C(CSc1nc(Nc2ccccc2)nc(N2CCOCC2)n1)Nc1ccc2c(c1)OCCO2,inactive
22,COc1cc(N2C(=O)C=CC2=O)c(OC)cc1Cl,"inconclusive: 20 µM [inhibitor, full curve, poor fit]"

row,Compound,Potency
1,O=S(=O)(c1ccc(OC(F)(F)F)cc1)N1CCC(O)(c2cccc(C(F)(F)F)c2)CC1,"inconclusive: 17.8 µM [inhibitor, full curve, poor fit]"
2,O=[N+]([O-])c1ccc(C(O)C23CN4CN(CN(C4)C2)C3)cc1 (stereo unspecified),inactive
3,O=c1oc2ccc(Br)cc2cc1-c1nc2c(s1)CCc1ccccc1-2,inactive
4,O=C1SC(SC(=Nc2ccccc2)Nc2ccccc2)C(=O)N1c1ccccc1 (stereo unspecified),"inconclusive: 39.8 µM [inhibitor, partial curve, poor fit]"
5,O=C(NC(c1ccccc1)c1ccccc1)c1ccc(=O)[nH]n1,"inconclusive: 89.1 µM [inhibitor, partial curve, poor fit]"
6,O=C(Nc1nc2c(Br)cc(Br)cc2c(=O)s1)C1CCC1,"inconclusive: 100 µM [inhibitor, single point]"
7,Clc1ccc(Cn2cc(/C=N/n3cnnc3)c3ccccc32)cc1,"inconclusive: 79.4 µM [inhibitor, partial curve, poor fit]"
8,Nc1c(O)ccc2c1C(=O)c1ccccc1C2=O,"inconclusive: 79.4 µM [inhibitor, partial curve, poor fit]"
9,COc1ccc(S(=O)(=O)N2CC3CCCN3c3ccc(C(F)(F)F)cc32)cc1 (stereo unspecified),inactive
10,Oc1c(Br)cc(Br)cc1/C=N/n1c(-c2ccccc2)n[nH]c1=S,"inconclusive: 35.5 µM [inhibitor, partial curve, poor fit]"
11,CC(=O)c1ccc(NC(=O)CN2C(=O)/C(=C/C=C/c3ccccc3)SC2=S)cc1,"inconclusive: 17.8 µM [inhibitor, full curve, poor fit]"
12,CC(=O)c1cc(C#N)c(N2CCCC2)nc1C,"inconclusive: 50.1 µM [inhibitor, partial curve, poor fit]"
13,CCOc1ccccc1NC(=O)c1ccc2oc(=O)c(S(=O)(=O)c3ccc(F)cc3)cc2c1,"inconclusive: 70.8 µM [inhibitor, single point]"
14,Nc1cc2nsnc2cc1Br,"inconclusive: 50.1 µM [inhibitor, partial curve, poor fit]"
15,CCOc1ccc(-c2csc(NC(=O)c3ccc(S(=O)(=O)N4CCc5ccccc5C4)cc3)n2)cc1,inactive
16,Cc1ccc(C2=NN(Cc3nnc(-c4ccccc4)o3)C(=O)SC2)cc1,inactive
17,C=CCOC(=O)/C=C/C(=O)NC(N)=O,"inconclusive: 44.7 µM [inhibitor, partial curve, poor fit]"
18,COc1ccc(CN2CCN(C(=O)c3ccco3)CC2)cc1OC,"inconclusive: 70.8 µM [inhibitor, partial curve, poor fit]"
19,O=C(CCNC(=O)c1ccccc1)Nc1cccnc1,"inconclusive: 79.4 µM [inhibitor, partial curve, poor fit]"
20,Cn1c(N2CCOCC2)c(/C=N/OC(=O)c2ccc(F)cc2)c2ccccc21,inactive
21,CN(C)/C=C/C(=O)c1ccc2noc(-c3cccc(F)c3)c2c1,"inconclusive: 79.4 µM [inhibitor, partial curve, poor fit]"
22,Cc1ccc(N2C(=O)SC(Cc3ccccc3)C2=O)cc1 (stereo unspecified),"inconclusive: 79.4 µM [inhibitor, partial curve, poor fit]"
